Assay results reported in the supplement of paper PMC8813932.
Counter-ions that a name gives are not always drawn. ± gives the standard deviation of the averaged measurements. The list shows a part of the results. Many values rest on one well or one pass, so single values are uncertain.

Experiments:
Assay in all cases: log2 surviving fraction relative to plate median (drug vs vehicle, or drug+dl922-947 vs dl922-947 alone); ovarian cancer lines: OVCAR4 is platinum-sensitive while Ov4Cis resists cisplatin and Ov4Carbo carboplatin; higher = more cell survival
Conditions in all cases: compound concentration: 10 uM, 192 h
OVCAR4 = tested on: OVCAR4
Ov4Carbo = tested on: Ov4Carbo
Ov4Cis = tested on: Ov4Cis
[1] = dl922-947 oncolytic adenovirus co-treatment: MOI 10
[2] = dl922-947 oncolytic adenovirus co-treatment: none

Structure (SMILES) | log2 surviving fraction (OVCAR4; [1]) | log2 surviving fraction (OVCAR4; [2]) | log2 surviving fraction (Ov4Carbo; [1]) | log2 surviving fraction (Ov4Carbo; [2]) | log2 surviving fraction (Ov4Cis; [1]) | log2 surviving fraction (Ov4Cis; [2])
CCOC(=O)C(C)(C)Oc1ccc(Cl)cc1 [Clofibrate (Atromid-S)] | 1.08 ± 0.85 | 0.681 ± 0.3 | 0.149 | 0.398 | 0.301 | 0.808
O=S(=O)(O)c1cc(O)ccc1O [Ethamsylate] | 0.433 ± 0.55 | -0.284 ± 0.26 | 1.02 | 0.223 | -0.0347 | -0.392
CC(=O)Oc1ccccc1C(=O)O [Aspirin (Acetylsalicylic acid)] | -0.988 ± 0.3 | -1.01 ± 0.29 | -0.648 | 0.338 | -1.15 | -3.11
O=P(O)(O)C(O)(Cn1ccnc1)P(=O)(O)O [Zoledronic Acid (Zoledronate)] | 0.977 ± 0.23 | 0.569 ± 0.73 | 1.2 | 0.982 | -0.0296 | 0.234
CCC(=O)O[C@]1(C(=O)CCl)[C@@H](C)C[C@H]2[C@@H]3CCC4=CC(=O)C=C[C@]4(C)[C@@]3(F)[C@@H](O)C[C@@]21C [Clobetasol propionate] | 0.124 ± 0.87 | -1.96 ± 0.23 | -0.764 | -1.22 | 0.0633 | -1.94
CC(=O)OCC[N+](C)(C)C [Acetylcholine chloride] | 0.532 ± 0.38 | 0.278 ± 0.021 | 1.46 | 0.427 | 0.528 | 0.27
N#Cc1c(N(CC(=O)O)CC(=O)O)sc(C(=O)O)c1CC(=O)O [Strontium ranelate (Protelos)] | -0.166 ± 0.85 | 0.288 ± 1.4 | -0.0275 | 0.00723 | 0.377 | 0.138
Clc1ccc(C(Cn2ccnc2)OCc2csc3c(Cl)cccc23)c(Cl)c1 (stereo not drawn) [Sertaconazole nitrate] | -0.125 ± 0.27 | -0.241 ± 0.81 | 0.556 | 0.142 | -0.681 | -0.15
C[N+]1(C)[C@@H]2C[C@@H](OC(=O)[C@H](CO)c3ccccc3)C[C@H]1[C@@H]1O[C@@H]12 [Methscopolamine (Pamine)] | 0.347 ± 0.061 | 0.0275 ± 0.13 | 1.09 | -0.555 | -0.367 | 0.388
CS(=O)(=O)c1ccc(C(=O)Nc2ccc(Cl)c(-c3ccccn3)c2)c(Cl)c1 [Vismodegib (GDC-0449)] | 0.916 ± 0.16 | 0.566 ± 0.2 | 0.667 | 1.4 | 0.791 | 0.628
O=C(Nc1cccc2c(=O)cc(-c3nnn[nH]3)oc12)c1ccc(OCCCCc2ccccc2)cc1 [Pranlukast] | 0.165 ± 0.93 | 0.377 ± 0.26 | 0.311 | 0.58 | 0.339 | -0.12
CCN(CC)CC(=O)Nc1c(C)cccc1C [Lidocaine (Alphacaine)] | -0.325 ± 0.16 | 0.349 ± 0.4 | -0.818 | -0.668 | 0.473 | 0.644
CC[C@H](C)C(=O)O[C@H]1C[C@@H](C)C=C2C=C[C@H](C)[C@H](CC[C@@H]3C[C@@H](O)CC(=O)O3)[C@H]21 [Lovastatin (Mevacor)] | 0.186 ± 0.16 | -1.81 ± 0.8 | -1.27 | -3.26 | -0.325 | -0.62
CCCCC(=O)O[C@H]1CC[C@H]2[C@@H]3CCc4cc(O)ccc4[C@H]3CC[C@]12C [Estradiol valerate] | -0.286 ± 0.73 | -0.776 ± 0.23 | 0.0679 | 0.652 | -0.928 | 0.464
c1ccc2[nH]c(-c3cscn3)nc2c1 [Thiabendazole] | -0.399 ± 0.95 | -0.158 ± 0.62 | -0.042 | 0.909 | 0.248 | -0.929
C#C[C@]1(O)CC[C@H]2[C@@H]3CCC4=CC(=O)CC[C@@H]4[C@H]3CC[C@@]21C [norethindrone] | 0.535 ± 0.24 | -0.486 ± 0.1 | -0.0089 | 1.37 | 0.839 | 0.598
COc1cc2nc(N3CCN(C(=O)c4ccco4)CC3)nc(N)c2cc1OC [Prazosin HCl] | -5.32 ± 1.3 | -3.74 ± 1 | -7.85 | -9.66 | -5.35 | -9.26
C=CCc1cc(OC)c(O)c(C(=O)NCCO)c1 [Alibendol] | -0.613 ± 0.31 | 0.86 ± 0.89 | -0.179 | 0.365 | 1.57 | 1.34
CC(=O)O[C@]1(C(C)=O)CC[C@H]2[C@@H]3C[C@H](C)C4=CC(=O)CC[C@]4(C)[C@H]3CC[C@@]21C [Medroxyprogesterone acetate] | 1.13 ± 0.05 | 0.713 ± 1.6 | 0.381 | 0.885 | 1.36 | 0.834
CNC[C@H](O)c1ccc(O)c(O)c1 [Epinephrine bitartrate (Adrenalinium)] | -0.758 ± 0.54 | -0.646 ± 0.49 | -1.88 | -2.03 | -0.914 | -0.753
C[C@]12CC[C@@H]3c4ccc(O)cc4C[C@@H](CCCCCCCCC[S+]([O-])CCCC(F)(F)C(F)(F)F)[C@H]3[C@@H]1CC[C@@H]2O (stereo partly drawn) [Fulvestrant (Faslodex)] | 0.186 ± 0.69 | 1.62 ± 1.7 | -1.37 | 0.344 | 0.16 | -0.0214
COc1ccc2c(c1)c(CC(=O)O)c(C)n2C(=O)c1ccc(Cl)cc1 [Indomethacin (Indocid, Indocin)] | -0.0924 ± 0.9 | -0.0802 ± 0.37 | -0.48 | 0.858 | 0.909 | -0.00724

Structure (SMILES) | log2 surviving fraction (OVCAR4; [1]) | log2 surviving fraction (OVCAR4; [2]) | log2 surviving fraction (Ov4Carbo; [1]) | log2 surviving fraction (Ov4Carbo; [2]) | log2 surviving fraction (Ov4Cis; [1]) | log2 surviving fraction (Ov4Cis; [2])
Cc1c(-c2ccc(O)cc2)n(Cc2ccc(OCCN3CCCCCC3)cc2)c2ccc(O)cc12 [Bazedoxifene HCl] | -8.346 ± 0.057 | -9.28 ± 4.5 | -7.04 | -9.84 | -7.84 | -12.5
O=C1CC[C@@H](C(=O)N2CSC[C@H]2C(=O)O)N1 [Pidotimod] | 1.1 ± 0.26 | -0.0587 ± 0.6 | -0.199 | 0.669 | 0.69 | 0.196
CC(=O)[C@H]1CC[C@H]2[C@@H]3CCC4=CC(=O)CC[C@]4(C)[C@H]3CC[C@]12C [Progesterone (Prometrium)] | -0.345 ± 0.93 | -1.34 ± 0.99 | 0.589 | -0.0771 | -0.174 | -0.22
COc1cccc2c1C(=O)c1c(O)c3c(c(O)c1C2=O)C[C@@](O)(C(=O)CO)C[C@@H]3O[C@H]1C[C@H](N)[C@@H](O)[C@H](C)O1 [Epirubicin Hydrochloride] | -7.85 ± 1.8 | -9.28 ± 8.7 | -6.31 | -11 | -3.99 | -10.8
CC(=O)Nc1ccccc1 [Acetanilide (Antifebrin)] | -0.0651 ± 0.34 | -0.848 ± 1.8 | -0.401 | -0.0226 | -0.689 | 0.593
CN1C(C(=O)Nc2ccccn2)=C(O)c2sccc2S1(=O)=O [Tenoxicam (Mobiflex)] | -0.0883 ± 0.46 | -0.0456 ± 0.1 | 1.13 | 0.201 | -0.676 | -0.281
CN(C)C(=O)Oc1cccc([N+](C)(C)C)c1 [Neostigmine bromide (Prostigmin)] | -0.0693 ± 0.12 | 0.254 ± 0.27 | -0.207 | 0.176 | 0.304 | 0.269
Nc1[nH]cnc2ncnc1-2 [Adenine sulfate] | 0.022 ± 0.71 | 1.07 ± 1.1 | 0.777 | 0.299 | 0.0647 | 1.33
CCOC(=O)[C@H](CCc1ccccc1)N[C@H]1CS[C@H](c2cccs2)CN(CC(=O)O)C1=O [Temocapril HCl] | 0.0679 ± 0.31 | 0.426 ± 0.17 | 0.325 | -0.61 | 0.0537 | 0.0834
COC(c1ccccc1)(c1ccccc1)[C@H](Oc1nc(C)cc(C)n1)C(=O)O [Ambrisentan] | 0.475 ± 0.45 | 0.371 ± 0.23 | 0.00419 | -0.256 | -0.285 | -0.177
CCC1(c2ccc(N)cc2)CCC(=O)NC1=O (stereo not drawn) [Aminoglutethimide (Cytadren)] | 0.125 ± 0.49 | 0.57 ± 1.1 | -1.06 | -0.758 | 1.08 | 0.449
CC1(C)S[C@@H]2[C@H](NC(=O)[C@H](NC(=O)N3CCNC3=O)c3ccccc3)C(=O)N2[C@H]1C(=O)O [Azlocillin sodium salt] | -0.425 ± 0.2 | 0.285 ± 0.12 | 0.0813 | 0.424 | -0.00756 | 0.347
CCCCCCCCCCCCCCCCCCCCCCO [Docosanol (Abreva)] | 0.144 ± 1.6 | 0.446 ± 0.17 | -0.435 | 0.199 | -0.474 | 0.448
O=c1[nH]cnc2c1ncn2[C@H]1CC[C@@H](CO)O1 [Didanosine (Videx)] | -0.138 ± 0.09 | -0.58 ± 0.0042 | 0.373 | 0.273 | -1.02 | 0.375
Oc1ccc(OCc2ccccc2)cc1 [Monobenzone (Benoquin)] | -2.15 ± 1.3 | -3.15 ± 0.29 | -3.62 | -7.03 | -3.84 | -2.93
Cc1ccc(C(=O)C(C)CN2CCCCC2)cc1 (stereo not drawn) [Tolperisone HCl] | 0.00404 ± 0.16 | -0.421 ± 0.58 | -0.216 | -0.0823 | 0.427 | -0.456
CC(C)[N+]1(C)[C@@H]2CC[C@H]1C[C@@H](OC(=O)C(CO)c1ccccc1)C2 (stereo partly drawn) [Ipratropium bromide] | 0.224 ± 0.56 | -0.0724 ± 0.029 | -0.0502 | -0.504 | -0.455 | 0.296
O=C(O)C1=CO[C@@H](O[C@@H]2O[C@H](CO)[C@@H](O)[C@H](O)[C@H]2O)[C@@H]2C(CO)=CC[C@H]12 [Geniposidic acid] | 0.84 ± 0.62 | 0.642 ± 1.1 | 0.131 | 1.24 | 0.858 | 1.02
Clc1ccccc1C(c1ccccc1)(c1ccccc1)n1ccnc1 [Clotrimazole (Canesten)] | -0.311 ± 0.097 | -2.36 ± 0.17 | -0.267 | -4.11 | -0.348 | -0.979
C[C@H](Cn1cnc2c(N)ncnc21)OCP(=O)(O)O [Tenofovir (Viread)] | -0.73 ± 0.76 | -0.29 ± 0.81 | 0.274 | 0.968 | -0.496 | -0.274
CN1CCN(CCCN2c3ccccc3Sc3ccc(Cl)cc32)CC1 [Prochlorperazine Dimaleate] | -3.59 ± 1.3 | -2.63 ± 0.028 | -5.38 | -6.43 | -4.16 | -2.71
